Reference: PubChem BioAssay AID1030 (National Center for Advancing Translational Sciences (NCATS), 2008)
In all, about 220,000 compounds went through this assay and about 16,000 (7.3%) were called active. Inconclusive means that the source gave no clear call. Such entries were picked first, then a sample of the others. The call rests on the fitted dose curve; in most records, active means well fitted inhibition curve with a large enough effect (not every such curve was filed as active); inconclusive means small, poorly fitted or top-dose-only effect, or another doubt; inactive means no such curve, though single readings can be large or run the other way. No potency is given beside an inconclusive call; the fits are too rough. Numbered stars: 1 amine (or outer) side, 2 acyl side, 3 side chain; on linkers, the order of the positions; unused ones are H or OH. Bridge positions count the residues as written; N and C are the ends. Square brackets hold non-standard residues; d marks the D form. Peptide text beside a SMILES is read from it. ξ: configuration not given here. hSer(Ph(2-I,4-NO2,6-CO)) = O=C([C@H](CCOc1c(I)cc([N+](=O)[O-])cc1C(=O)[*:3])N[*:1])[*:2]; ξD = NC(CC(=O)O)C(=O)O

target: Aldehyde dehydrogenase 1A1 (Homo sapiens) (UniProt P00352); test: qHTS Assay for Inhibitors of Aldehyde Dehydrogenase 1 (ALDH1A1); conditions: Purified ALDH1A1, NADH fluorescence, propionaldehyde substrate; series mostly up to 75.3 µM; activity, negative = inhibition: at the top concentration;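 on activity, negative = inhibition: plate controls were no enzyme wells and a reference inhibitor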
Sequence of UniProt P00352 (P00352 whole entry, looked up): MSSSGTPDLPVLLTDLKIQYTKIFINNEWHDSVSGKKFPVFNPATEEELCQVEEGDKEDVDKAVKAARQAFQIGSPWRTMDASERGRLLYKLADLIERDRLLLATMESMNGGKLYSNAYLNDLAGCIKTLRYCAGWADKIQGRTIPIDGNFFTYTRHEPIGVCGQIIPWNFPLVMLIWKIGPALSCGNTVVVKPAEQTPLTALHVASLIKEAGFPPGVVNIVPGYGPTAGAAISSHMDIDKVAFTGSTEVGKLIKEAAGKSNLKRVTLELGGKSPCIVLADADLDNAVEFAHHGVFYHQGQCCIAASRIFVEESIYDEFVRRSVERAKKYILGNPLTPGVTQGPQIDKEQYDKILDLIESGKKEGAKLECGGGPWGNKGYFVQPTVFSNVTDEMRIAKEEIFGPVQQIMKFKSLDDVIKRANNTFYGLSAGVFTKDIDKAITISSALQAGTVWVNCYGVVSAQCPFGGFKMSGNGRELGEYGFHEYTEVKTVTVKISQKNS
Potency means the concentration at half of the fitted maximal effect; tags describe the fitted curve by direction and shape.

Row | Structure (SMILES) | Potency | activity, negative = inhibition
1 | COC(=O)c1oc2ccccc2c1NC(=O)CN1CCCC1 | inconclusive [inhibitor, single point] | –
2 | CCc1ccccc1Nc1ccc(C(=O)O)cc1N | inconclusive [inhibitor, single point] | –
3 | CSc1ccc(/C=C(/Sc2nnc(-c3ccccc3)o2)C(=O)O)cc1 | inconclusive [inhibitor, single point] | –
4 | O=C(NCCCO)Nc1ccc2nc(-c3ccco3)c(-c3ccco3)nc2c1 | inconclusive [inhibitor, partial curve] | –
5 | Cc1ccc(Cn2ccc(NC(=O)c3nn(C)cc3[N+](=O)[O-])n2)cc1 | – | inactive: 7.28%
6 | C[C@@H]1NC(=O)[C@H](CCCN=C(N)N)NC(=O)c2cc([N+](=O)[O-])cc(I)c2OCC[C@@H](C(=O)NC(CC(=O)O)C(N)=O)NC1=O (stereo not given in full) (RA[hSer(Ph(2-I,4-NO2,6-CO))][ξD]-NH2; lactam N-3) | inconclusive [inhibitor, single point] | –
7 | Cc1cccc(C)c1NC(=O)CC(NCCc1ccccc1)C(=O)O (stereo not given) | – | inactive: 1.06%
8 | COc1ccc(N2C(=O)CC(Sc3ncn[nH]3)C2=O)c(OC)c1 (stereo not given) | active: 14.1 µM | –
9 | Nn1c(SCc2cc([N+](=O)[O-])cc3c2OCOC3)nnc1-c1cccnc1 | – | inactive: -0.369%
10 | O=C(Cc1ccccc1)N[C@H](c1ccccc1)P(=O)(O)CO | – | inactive: -0.401%
11 | CCCCC1=CC2=C(c3ccco3)C(=O)C(C)(OC(=O)c3ccc(OC)cc3)C(=O)C2=CN1C(CO)CO (stereo not given) | inconclusive [inhibitor, single point] | –
12 | COc1ccc(-c2noc(CN(C)Cc3ccc(C)o3)n2)cc1 | inconclusive [inhibitor, partial curve] | –
13 | CCn1c(CCCc2nc3c([nH]2)c(=O)n(C)c(=O)n3C)nc2c1c(=O)n(C)c(=O)n2C | – | inactive: 3.13% [at 13.5 µM]
14 | O=C(CCl)N(c1ccccc1)C1CCCCC1 | active: 0.0355 µM | –
15 | Cc1cc(=O)[nH]c2ccc(Cl)cc12 | – | inactive: 9.6%
16 | O=C(c1ccccc1)c1nc2ccccc2n(CCCn2c(=O)c(C(=O)c3ccccc3)nc3ccccc32)c1=O | active: 11.2 µM | –
17 | COc1ccc(N(CC(=O)N2CCc3ccccc3C2)S(C)(=O)=O)cc1 | inconclusive [inhibitor, single point] | –
18 | CC1CCc2cc(F)ccc2N1C(=O)CSc1nnc2c(n1)[nH]c1ccccc12 (stereo not given) | – | inactive: -9.43%
19 | COc1ccc(Cn2nnnc2C(c2cccs2)N2CCN(c3ccc([N+](=O)[O-])cc3)CC2)cc1 (stereo not given) | inconclusive [inhibitor, single point] | –
20 | O=C(O)c1cccc(-n2cccc2C=C2C(=O)c3ccccc3C2=O)c1 | inconclusive [inhibitor, single point] | –
21 | O=S(=O)(c1ccccc1)n1ccc(-c2cnc(-c3ccccc3)s2)n1 | inconclusive [inhibitor, single point] | –
22 | N#Cc1ccc(N2Cc3ccccc3C2=NC(=O)c2cccnc2Cl)cc1 | inconclusive [inhibitor, partial curve] | –
23 | CCOCCCN(Cc1ccco1)C(=O)c1cc2c(=O)[nH]c3ccc(C)cc3c2s1 | inconclusive [inhibitor, partial curve] | –

Row | Structure (SMILES) | Potency | activity, negative = inhibition
24 | CCC(C)c1ccc(NC(=S)Nc2ccc(OC)cc2)cc1 (stereo not given) | inconclusive [inhibitor, partial curve] | –
25 | CC(=O)Nc1ccc(N2CC(C)(C)C2=O)cc1 | – | inactive: 3.66%
26 | O=C(c1ccco1)N1CCN(C(=O)c2oc(=O)c3ccccc3c2-c2ccccc2)CC1 | inconclusive [inhibitor, single point] | –
27 | Cc1ccc(/C(O)=C2\C(=O)C(=O)N(CCN(C)C)C2c2ccccc2F)cc1 (stereo not given) | inconclusive [inhibitor, single point] | –
28 | CCOC(=O)CC1(C)NC(=O)c2c(C)sc(C(=O)OCC)c2N1 (stereo not given) | inconclusive [inhibitor, single point] | –
29 | O=[N+]([O-])c1cc(Cl)ccc1N1CCCC1 | inconclusive [inhibitor, partial curve] | –
30 | CCOC(=O)c1sc2nc[nH]c(=O)c2c1C | – | inactive: -5.98%
31 | COc1ccc2c(c1)-c1ccccc1S(=O)(=O)N2C(C)=O | inconclusive [inhibitor, single point] | –
32 | O=C(CN1C(=O)c2cccc3cccc(c23)C1=O)N1CCOCC1 | inconclusive [inhibitor, single point] | –
33 | CC(C)C(C)(C#N)NC(=O)CSc1nc2scc(-c3ccccc3)c2c(=O)[nH]1 (stereo not given) | active: 11.2 µM | –
34 | COc1ccc(NC(=O)C(=O)N/N=C/c2cc(C)n(-c3cccc(Cl)c3Cl)c2C)c(OC)c1 | active: 31.6 µM | –
35 | CNC(=S)N/N=C/c1cn(CCOc2cccc(OC)c2)c2ccccc12 | inconclusive [inhibitor, single point] | –
36 | O=C(CSc1ccc2c(c1)OCCO2)Nc1ccc2c(c1)OCO2 | inconclusive [inhibitor, single point] | –
37 | OC(COC(c1ccccc1)c1ccccc1)CN1CCCCC1 (stereo not given) | – | inactive: -6.6%
38 | O=C(c1ccc(OC2CCN(Cc3ccccn3)CC2)cc1)N1CCCCCC1 | inconclusive [inhibitor, single point] | –
39 | COc1cccc(C2=NC(C)(C)NC(c3ccccc3O)C2)c1 (stereo not given) | inconclusive [inhibitor, single point] | –
40 | NCCCC[C@H](N)c1nnc([C@H](CCC(=O)O)NC(=O)C2CCNCC2)o1 | – | inactive: 1.68%
41 | CCCC(=O)NCCc1c(I)[nH]c2ccc(OC)cc12 | active: 20 µM | –
42 | CC(C)NC(=O)CSc1nc2ccccc2n1CC(=O)N(C(C)C)C(C)C | – | inactive: 5.85%
43 | C#CCOC(=O)CCC(=O)NCCc1ccccc1 | active: 10 µM | –
44 | CCCn1c(=O)n(C)c(=O)c2c(SCC(=O)NCc3ccco3)nc(C3CC3)nc21 | inconclusive [inhibitor, single point] | –
45 | C=CCNC(=O)/C(C#N)=C/c1ccc(OS(=O)(=O)c2ccc(C)cc2)c(OC)c1 | active: 25.1 µM | –
